“And” between values parts separate entries of the source, which are not always exact repeats. Identical values can stand only once. The campaign covered roughly 270,000 compounds. About 5,800 (2.1%) were called active. The inconclusive results got no clear call from the source; some entries with a clear call stand among them for comparison. Calls follow the shape of the dose curve; as a rule, active = well fitted inhibition curve with a large enough effect; inconclusive = small, poorly fitted or top-dose-only effect; inactive = flat fitted curve, though single readings scatter. A potency beside an inconclusive call is a rough fit, not a confirmed value.
Biological target: Microtubule-associated protein tau (Homo sapiens) (UniProt P10636)
Test: qHTS for Inhibitors of Tau Fibril Formation, Thioflavin T Binding; also: nearly all actives have a fitted effect of over 55% in size
Conditions: recombinant tau K18 P301L (four-repeat tau fragment), heparin-induced fibrillization, ThT fluorescence; series mostly up to 57.4 µM; activity, negative = inhibition: at the top concentration
Outline: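 Heparin-induced (20 uM) aggregation of recombinant human K18 P301L tau, 15 uM unlabeled with 0.24 uM labeled, pH 7 acetate buffer, 6 hr at 37 C with compound. Fibrils quantified by 30 uM ThT fluorescence after 1 hr ambient incubation.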
% is scaled to controls: 0 for no effect and ±100 for the full control effect; potency is read from the fitted curve at half-maximal effect; tags tell the direction and shape of the fitted curve.

Sequence of UniProt P10636 (P10636 whole entry, looked up): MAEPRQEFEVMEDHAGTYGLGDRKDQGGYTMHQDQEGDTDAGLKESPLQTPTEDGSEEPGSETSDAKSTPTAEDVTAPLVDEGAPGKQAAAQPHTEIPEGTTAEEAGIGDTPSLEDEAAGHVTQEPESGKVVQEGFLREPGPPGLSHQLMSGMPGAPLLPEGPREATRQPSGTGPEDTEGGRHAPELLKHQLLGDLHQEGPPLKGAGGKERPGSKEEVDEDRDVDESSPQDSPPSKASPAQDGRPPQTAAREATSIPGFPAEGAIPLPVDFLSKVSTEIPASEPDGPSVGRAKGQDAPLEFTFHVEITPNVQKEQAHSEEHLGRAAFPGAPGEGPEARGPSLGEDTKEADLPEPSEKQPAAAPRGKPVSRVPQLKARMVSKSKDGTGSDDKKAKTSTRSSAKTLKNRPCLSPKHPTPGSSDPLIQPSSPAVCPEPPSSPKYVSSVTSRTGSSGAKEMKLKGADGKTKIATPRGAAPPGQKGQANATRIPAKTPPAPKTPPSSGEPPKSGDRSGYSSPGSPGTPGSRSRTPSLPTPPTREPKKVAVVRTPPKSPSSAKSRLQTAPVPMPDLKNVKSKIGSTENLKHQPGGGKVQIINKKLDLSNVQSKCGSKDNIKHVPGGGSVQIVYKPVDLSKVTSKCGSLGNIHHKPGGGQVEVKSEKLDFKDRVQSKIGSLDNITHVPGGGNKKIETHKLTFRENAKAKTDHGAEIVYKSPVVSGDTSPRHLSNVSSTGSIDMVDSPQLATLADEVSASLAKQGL

Compound | Potency | activity, negative = inhibition
COc1ccc(Br)cc1/C=N/Nc1cccc(C(=O)O)c1 | inconclusive: 25.1 µM [inhibitor, partial curve] | 
CCc1ccc(/C=C/C(=O)c2ccc(N3CCOCC3)cc2)cc1 | inconclusive: 4.47 µM [inhibitor, partial curve] | 
COC(=O)c1ccccc1NC(=O)c1ccc(-c2nc(COc3ccccc3)c(C)o2)cc1 |  | inactive: -5.13%
Cc1cc(C)c(N(C(=O)CN2C(=O)c3ccccc3S2(=O)=O)C(C(=O)NCC2CCCO2)c2ccc(F)cc2)c(C)c1 (stereo not drawn) | inconclusive: 39.8 µM [inhibitor, single point] | 
CCN(CC(=O)Nc1ccc(C(=O)Nc2ccc(OC)cc2)cc1)Cc1nc2ccccc2c(=O)[nH]1 | inconclusive: 7.94 µM [inhibitor, partial curve] | 
COc1ccc(NC(=S)N/N=C/c2cccn2Cc2ccccc2F)cc1 |  | inactive: -12.7%
C#CCNc1ccc([N+](=O)[O-])cc1 | inconclusive: 14.1 µM [inhibitor, partial curve, poor fit] | 
N#CC1=C(C2CC2)CC(c2ccccc2)C(C#N)=C1N (stereo not drawn) | inconclusive: 31.6 µM [inhibitor, partial curve] | 
Oc1ccc(Cl)cc1C1=NNC(c2cccs2)C1 (stereo not drawn) | inconclusive: 28.2 µM [inhibitor, single point] | 
Cc1nn(C)c2c1c(-c1ccccc1)cc(=O)n2Cc1ccccc1C#N |  | inactive: -14.8%
CC(C)CN(CCCNC(=O)c1cc(-c2cccs2)nc2ccccc12)CC(C)C |  | inactive: 2.68%
CCOC(=O)C1CCCN(c2c(C(=O)c3ccc(OCC)cc3)cnc3ccccc23)C1 (stereo not drawn) |  | inactive: -8.37%
Cc1ccc(Cn2c(C)cc3c(c2=O)C(c2cccs2)C(C#N)=C(N)O3)cc1 (stereo not drawn) |  | inactive: 3.85%
Cc1nc2nc(SCC(=O)N3CCOCC3)nn2c(C)c1Cc1c(F)cccc1Cl |  | inactive: -0.181%
O=C(Nc1ccc([N+](=O)[O-])cc1)Nc1ccc2[nH]c(=O)[nH]c2c1 | active: 8.91 µM | 
CCCNC(=O)COCc1cc(-c2ccc(F)cc2)on1 |  | inactive: -5.54%
O=C(CCC1N=C2c3ccccc3N=C(SCc3ccccc3F)N2C1=O)NCc1ccccc1 (stereo not drawn) |  | inactive: -7.86%
COc1cc(/C=C(/C#N)C(=O)Nc2ccccc2)ccc1OCc1ccc(C(=O)O)cc1 | inconclusive: 2.51 µM [inhibitor, full curve] | 
O=C(NCc1ccccc1Br)c1ccc2c(c1)nc1n2CCOC1 |  | inactive: -2.57%
CCC(=O)NC(=S)Nc1ccc(NC(=O)c2ccc(C)c([N+](=O)[O-])c2)cc1 | inconclusive: 6.31 µM [inhibitor, partial curve] | 
CN1/C(=C\C(=O)c2cccs2)Sc2ccccc21 | inconclusive: 15.8 µM [inhibitor, partial curve] | 
Cc1ccc(S(=O)(=O)Nc2nc3ccccc3nc2NCC2CCCO2)cc1 (stereo not drawn) |  | inactive: -15.8%
COc1ccc(S(=O)(=O)Nc2cc(Sc3ncn[nH]3)c(O)c3ccccc23)cc1 | active: 7.08 µM | 

Compound | Potency | activity, negative = inhibition
COc1ccc2oc(-c3ccc(C)c(NC(=O)c4ccc5c(c4)OCCO5)c3)nc2c1 |  | inactive: -8.62%
COc1ccc(-n2ncc(C(=O)Nc3ccc4c(c3)OCO4)c2C2CCN(C(=O)OC(C)(C)C)CC2)cc1 | inconclusive: 25.1 µM [inhibitor, partial curve] | 
CC1/C=C/C=C/C=C/C=C/C=C/C=C/C=C/C(OC2OC(C)C(O)C(N)C2O)CC2O[C@@](O)(CC(O)CC(O)C(O)CCC(O)CC(O)CC(=O)OC(C)[C@H](C)C1O)CC(O)C2C(=O)O (stereo partly drawn) | active: 3.98 µM | 
COc1ccc(/C=N/Nc2ccc(C(=O)O)cc2)cc1OC | inconclusive: 11.2 µM [inhibitor, partial curve] | 
NC(=NCc1ccc2c(c1)OCO2)NC(=O)c1ccccc1 |  | inactive: 5.15%
COc1ccc(NC(=O)COC(C)=O)cc1OC |  | inactive: -6.54%
Cc1ccn2c(Nc3ccccc3)c(-c3ccccn3)nc2c1 |  | inactive: -18.3%
O=c1c(Cl)c(N2CCN(c3ccc(F)cc3)CC2)cnn1C12CC3CC(CC(C3)C1)C2 | inconclusive: 22.4 µM [inhibitor, partial curve] | 
COc1ccc(C2NC(=S)N3C(c4ccc(OC)cc4)NC(=S)N23)cc1 (stereo not drawn) |  | inactive: -26.8%
N#CC1=C(SCC(=O)NC23CC4CC(CC(C4)C2)C3)NC(=O)C(C#N)C12CCCCC2 (stereo not drawn) | inconclusive: 39.8 µM [inhibitor, single point] | 
CCn1cc(-c2csc(N)n2)c(C)n1 |  | inactive: -15.6%
CCOC(=O)c1c(C)[nH]c(C(=O)OCC(=O)Nc2ccc(OC)c(Cl)c2)c1C | inconclusive: 0.501 µM [inhibitor, full curve] | 
CC(C)(C)c1cc(/C=C(\C#N)C(N)=S)cc(C(C)(C)C)c1O | inconclusive: 31.6 µM [inhibitor, partial curve] and inconclusive: 8.91 µM [inhibitor, full curve] and inconclusive: 25.1 µM [inhibitor, partial curve] | 
CCOC(=O)C1CCCCN1Cc1cccc(OC)c1OC (stereo not drawn) |  | inactive: -3.38%
O=C(N/N=C/c1ccc(-c2ccccc2[N+](=O)[O-])o1)c1cccnc1 | active: 7.08 µM | 
CCOC(=O)c1cccc(NC(=O)CSc2nnc(COc3ccccc3)n2CC)c1 | inconclusive: 15.8 µM [inhibitor, partial curve] | 
CCC(=O)Oc1c(Sc2ccc(C)cc2)c(C)nn1-c1ccccc1 | inconclusive: 31.6 µM [inhibitor, partial curve] | 
COc1ccccc1N=c1oc2cc(O)ccc2cc1C(N)=O | inconclusive: 20 µM [inhibitor, partial curve] | 
O=C(c1cccc(Cl)c1)c1nn(-c2ccccc2)c(=O)cc1C(F)(F)F | inconclusive: 17.8 µM [inhibitor, partial curve] | 
COc1ccc(/C=N/NC(=O)c2nn(-c3ccc(Cl)cc3)c(=O)c3c(N)scc23)cc1 | active: 10 µM | 
CCOc1ccccc1C(=O)N1CCc2cc(OC)c(OC)cc2C1COc1ccc(OC)cc1 (stereo not drawn) |  | inactive: -6.45%
Cc1ccc(-c2nc3cccc(C)n3c2Nc2ccc3c(c2)OCO3)o1 | inconclusive: 17.8 µM [inhibitor, partial curve] | 
COCC(=O)n1nc(-c2ccccc2)nc1NCc1ccc(N(C)C)cc1 | inconclusive: 25.1 µM [inhibitor, single point] | 

Compound | Potency | activity, negative = inhibition
CCN1C(=O)c2cccc3c(S(=O)(=O)NCCc4c[nH]c5ccccc45)ccc1c23 | inconclusive: 25.1 µM [inhibitor, single point] | 
O=C(Nc1ccccc1C(F)(F)F)C1CCN(S(=O)(=O)c2ccccc2)CC1 | inconclusive: 0.631 µM [inhibitor, single point] | 
COc1ccccc1Nc1nc(Cl)c(C=O)s1 | inconclusive: 35.5 µM [inhibitor, single point] | 
O=[N+]([O-])c1ccc(/C=N/N/C(=N/c2ccccn2)c2ccccn2)cc1 | inconclusive: 14.1 µM [inhibitor, partial curve] | 
COc1c2c(cc3occ(-c4ccc5c(c4)OCO5)c(=O)c13)OC(C)(C)C=C2 | inconclusive: 4.47 µM [inhibitor, full curve] | 
COc1cnc(N(C)C)nc1Sc1ccc(Cl)cc1 | inconclusive: 31.6 µM [inhibitor, partial curve, poor fit] | 
CC(=O)c1ccc(-c2cccc([C@H]3[C@@H]4C=CC[C@@H](C)[C@@H]4C(=O)N3Cc3ccccc3)c2)cc1 | inconclusive: 31.6 µM [inhibitor, single point] | 
COC(=O)c1c(C(=O)OC)c2cccc3cc(-c4ccccc4)c4ccc1c4n32 | active: 3.55 µM | 
COC(=O)[C@@]1(Cc2ccc(OC)cc2)[C@H]2c3cc(C(=O)N4CCCC4)n(CCc4c[nH]c5cc(F)ccc45)c3C[C@H]2CN1C(=O)c1ccccc1 | inconclusive: 15.8 µM [inhibitor, partial curve, poor fit] | 
COc1ccccc1-c1nnc(Sc2nc([N+](=O)[O-])nn2C)o1 | inconclusive: 28.2 µM [inhibitor, single point] | 
Cc1nn2c(NC(C)C)c3c(nc2c1-c1ccccc1)CCC3 | active: 28.2 µM | 
CC(=O)N1C(=O)/C(=C2\SC(=S)N(NS(=O)(=O)c3ccc(C)cc3)C2=O)c2ccccc21 | active: 14.1 µM | 
Oc1[nH]c2ccccc2c1N=Nc1ccccc1F | inconclusive: 2.82 µM [inhibitor, full curve] | 
Cc1ccccc1OCC(=O)NC(=S)Nc1ccc(N2CCCC2)cc1 | inconclusive: 2.24 µM [inhibitor, full curve] | 
O=C(NCc1cn(-c2ccccc2)nc1-c1ccc(F)cc1)c1cccc([N+](=O)[O-])c1 | inconclusive: 3.16 µM [inhibitor, full curve] | 
NC(=O)CC(NC(=O)c1ccccc1)c1ccc(NC2CCCCC2)c([N+](=O)[O-])c1 (stereo not drawn) | inconclusive: 28.2 µM [inhibitor, partial curve] | 
CC(C)c1ccccc1NC(=O)CCc1nc2ccccc2s1 | inconclusive: 20 µM [inhibitor, single point] | 
Cc1cccc(N2CCN(Cc3nc(-c4cccc(Oc5ccccc5)c4)oc3C)CC2)n1 | inconclusive: 28.2 µM [inhibitor, partial curve] | 
COc1ccccc1-c1cc(C(F)(F)F)nc(S(=O)(=O)CCCC(=O)NCc2ccc(F)cc2)n1 |  | inactive: 1.05%
CC(=O)Oc1ccc2c(=O)c(-c3nc4ccccc4s3)coc2c1 | inconclusive: 31.6 µM [activator, single point] | 
Cc1ccc(OCC(=O)N2CC(C)OC(C)C2)c([N+](=O)[O-])n1 (stereo not drawn) |  | inactive: 4.53%
CCCc1nn2c(=O)cc(COC(=O)c3cccc(NC(=O)c4ccc(OCC)cc4)c3)nc2s1 | inconclusive: 2 µM [inhibitor, full curve] | 

— PubChem BioAssay AID1460 (National Center for Advancing Translational Sciences (NCATS), 2008)
